About 1,700 (3.3%) of roughly 52,000 compounds were called active. Cut-off read from the data, not from the text of the source: active = survival mostly below about 52% (no sharp cut-off); inactive = mostly above about 56%. The list shows a part of the results.
Test system: Wild type
Assay: S. aureus survival, RN4220 and DeltatarO strains – OD600, teichoic acid synthesis inhibitors, primary screen (AID 463173)
Details: S. aureus RN4220 wild type/DeltatarO growth, OD600, 18 h, active compounds read low, screened at 18.75 µg/mL (by protocol)

| SMILES | survival |
| --- | --- |
| CC(=O)NC1=NN(C(C)=O)C2(S1)C(=O)Nc1ccccc12 (centres undefined) | inactive: 96% |
| Cc1ccc(Oc2c(C(F)(F)F)oc3cc(OCC(=O)NC4CCCCC4)ccc3c2=O)cc1 | inactive: 63% |
| Cc1onc(-c2ccc(F)cc2F)c1C(=O)Nc1cccc(C(F)(F)F)c1 | inactive: 89% |
| O=C(Cn1cc(/C=C2\C(=O)NC(=O)N(Cc3ccccc3)C2=O)c2ccccc21)NCc1ccco1 | inactive: 98% |
| CC(C)Sc1ncc(Cl)c(C(=O)Nc2nnc(C(C)C)s2)n1 | inactive: 82% |
| CCc1ccc(NC(=O)Cn2c(=O)oc3cc(S(=O)(=O)N4CCCCCC4)ccc32)cc1 | inactive: 82% |
| CN(C(=O)C(=O)Nc1ccc2nc3n(c(=O)c2c1)CCCCC3)c1cccc(C(F)(F)F)c1 | inactive: 72% |
| CCc1ccc(CNC(=O)c2cc(-c3ccc(Br)s3)nc3ccccc23)cc1 | inactive: 80% |
| COc1cc(-c2nc3ccc(Cl)cn3c2NC(C)(C)C)ccc1O | inactive: 105% |
| COc1ccc(OC)c(-c2cc(C(=O)NC(C)c3ccccc3)no2)c1 (centres undefined) | active: -12% |
| COc1cccc(-c2ccc3c(N)c(C(=O)NCc4ccc(Cl)cc4)sc3n2)c1 | inactive: 65% |
| CCCOc1ccc(C2C(=O)N(C3CCC(C)CC3)CC(=O)N2CCC2=CCCCC2)cc1OC (centres undefined) | inactive: 87% |
| Cc1cccc(N2CCN(C3(c4ccccc4)C(=O)c4ccccc4C3=O)CC2)c1C | inactive: 71% |
| O=S(=O)(Nc1ccc2nc(-c3cccc(Cl)c3)oc2c1)c1ccccc1 | inactive: 75% |
| Cc1ccc2onc(CC(=O)N(C)c3ccccc3)c2c1 | inactive: 79% |
| COc1ccc(CCNC(=O)c2c(C)nn(-c3ccc(F)cc3)c2-n2cccc2)cc1OC | inactive: 71% |
| Cc1ccc(S(=O)(=O)N2CCOCC2)cc1C(=O)Nc1ccccc1C(=O)O | inactive: 67% |
| O=S(=O)(Nc1nc2n(n1)C(c1ccc(F)cc1)C=C(c1ccccc1)N2)c1ccc(Cl)cc1 (centres undefined) | active: 14% |
| O=C(CCc1nc2cccnc2n1Cc1cccs1)Nc1cccc(Cl)c1 | inactive: 70% |
| COc1ccccc1CNC(=O)c1ccc2nc(-c3ccccc3)c(-c3ccccc3)nc2c1 | inactive: 70% |
| CCOc1ccc(CNC(=O)c2ccc(NC(=O)N3CCCCc4ccccc43)cc2)cc1OC | inactive: 45% |
| CCn1cc(C(=O)NCc2ccc(C)cc2)c(=O)c2cc(S(=O)(=O)N3CCCCCC3)ccc21 | inactive: 72% |
| CC(C)CNc1nc(Oc2ccc(OCC(N)=O)nn2)nc(N2CCOCC2)n1 | inactive: 84% |
| c1ccc(-c2nonc2NCNc2nonc2-c2ccccc2)cc1 | inactive: 89% |
